Source: paper PMC10668032
The list shows a part of the results. At the low end of the ranking the order means little.

Each sequence was assayed against SIX1 homeodomain (reference allele) (UniProt Q15475) (assay: universal protein binding microarray). Conditions: Universal all-10-mer PBM (8x60K, AMADID 030236), 300 nM GST-tagged protein, Alexa Fluor 488 anti-GST; buffer, salt, pH and temperature not stated; high values mean tight binding; most listed sequences are background and not binding sites; double strand, one strand shown.

| Sequence | binding signal |
| --- | --- |
| ATACGATC | 0.388 E-score |
| GCATGCCC | -0.169 E-score |
| CTGCCAGC | -0.377 E-score |
| CTCATCCC | 0.0695 E-score |
| GACCTGTA | -0.0364 E-score |
| ACGAAAAT | -0.134 E-score |
| ACTACCCC | 0.0855 E-score |
| ACAAGAGG | -0.0142 E-score |
| ACCCACCG | -0.102 E-score |
| CGTTACGA | -0.0725 E-score |
| ATCCGTTC | 0.324 E-score |
| TCCGACAA | 0.0446 E-score |
| TAGCGCCA | -0.348 E-score |
| AGTCTCAG | -0.125 E-score |
| ATTAAAAT | -0.135 E-score |
| CCCCTCAG | 0.123 E-score |
| ATCACGAA | 0.172 E-score |
| TGACCGAA | -0.203 E-score |
| CAGGGAAC | -0.0798 E-score |
| ATACCACC | 0.403 E-score |
| TATCAGCA | 0.327 E-score |
| ACCCGGCA | -0.108 E-score |

| Sequence | binding signal |
| --- | --- |
| GACTGGGC | -0.251 E-score |
| GCATCACC | -0.0938 E-score |
| CCGTGACG | 0.0287 E-score |
| CTACTAGC | 0.0799 E-score |
| ATAAAGTC | -0.174 E-score |
| ATAGGCTG | -0.0133 E-score |
| GGTATAAC | 0.301 E-score |
| GCTTAAGA | -0.0326 E-score |
| CTACATCC | -0.0347 E-score |
| AACTCAGG | -0.00139 E-score |
| ATACCGGA | 0.381 E-score |
| ACCTCTGA | -0.0226 E-score |
| CGGGTACA | 0.107 E-score |
| CGCTGGCC | -0.217 E-score |
| AGGTTGCA | 0.0213 E-score |
| CGGGTCAG | -0.0169 E-score |
| AAAAATAC | 0.124 E-score |
| CTACGCCC | 0.0346 E-score |
| GTCGCAGA | -0.0781 E-score |
| CCCCAAGA | 0.0705 E-score |
| CAGAGGGA | 0.0779 E-score |
| ACTAACGC | -0.115 E-score |

| Sequence | binding signal |
| --- | --- |
| GATAACCA | 0.213 E-score |
| GTAACCTA | 0.0595 E-score |
| GTCCGTAA | -0.0864 E-score |
| GGAATGCC | -0.125 E-score |
| AGAGTGCA | -0.24 E-score |
| AATGCCCG | -0.0207 E-score |
| AAGATAAT | 0.11 E-score |
| GCGCCGGA | 0.11 E-score |
| AATTAGAT | 0.114 E-score |
| ATTCTCCC | 0.114 E-score |
| CCTGCACA | -0.183 E-score |
| AACAATTA | -0.175 E-score |
| CTCCATTA | -0.0529 E-score |
| CCCCGGGG | 0.0987 E-score |
| GATCTGTA | 0.25 E-score |
| TAGGGTCA | -0.0903 E-score |
| ACGGGTTG | 0.00325 E-score |
| GGCTCTTA | -0.0886 E-score |
| ACTCTTAC | -0.143 E-score |
| CGCAGGAG | -0.0766 E-score |
| ACACCTCT | 0.239 E-score |
| CCGATTAA | 0.0588 E-score |

| Sequence | binding signal |
| --- | --- |
| GTCGGTCA | -0.167 E-score |
| CGCTGACC | 0.0376 E-score |
| CTCTGTCA | -0.209 E-score |
| ATGGGCTG | -0.0694 E-score |
| CCCCACAG | 0.0544 E-score |
| AGGGAATC | 0.0233 E-score |
| AGTGACGC | -0.151 E-score |
| GCCTTTAA | -0.0709 E-score |
| GCACGGAC | -0.0842 E-score |
| GAGACCAA | -0.0593 E-score |
| GCATAATA | 0.187 E-score |
| ATATGTCC | 0.265 E-score |
| GCCTACCC | -0.207 E-score |
| AAGCCCGT | -0.257 E-score |
| CCGCGAGC | 0.0212 E-score |
| ACAGCGGC | -0.196 E-score |
| AATCGTGC | -0.0472 E-score |
| ACTTCCTG | -0.192 E-score |
| CAACGACC | -0.195 E-score |
| AGCTTCCT | -0.151 E-score |
